Experimental data reported in PubChem BioAssay AID504333 (National Center for Advancing Translational Sciences (NCATS), 2011).
The campaign covered roughly 360,000 compounds. About 16,000 (4.4%) were called active. Inconclusive means that the source gave no clear call. Such entries were picked first, then a sample of the others. Calls follow the shape of the dose curve; as a rule, active = well fitted inhibition curve with a large enough effect; inconclusive = small, poorly fitted or top-dose-only effect; inactive = no such curve, though single readings can be large or run the other way. Where the call is inconclusive, the potency comes from a doubtful curve fit.

What follows are molecules tested against Bromodomain adjacent to zinc finger domain protein 2B (Homo sapiens) (UniProt Q9UIF8) (assay: qHTS Assay for Inhibitors of BAZ2B). Conditions: AlphaScreen BAZ2B-H3K14Ac peptide displacement; series mostly up to 114 µM.
UniProt Q9UIF8, sequence (Q9UIF8 whole entry, looked up, the tested form may be a part): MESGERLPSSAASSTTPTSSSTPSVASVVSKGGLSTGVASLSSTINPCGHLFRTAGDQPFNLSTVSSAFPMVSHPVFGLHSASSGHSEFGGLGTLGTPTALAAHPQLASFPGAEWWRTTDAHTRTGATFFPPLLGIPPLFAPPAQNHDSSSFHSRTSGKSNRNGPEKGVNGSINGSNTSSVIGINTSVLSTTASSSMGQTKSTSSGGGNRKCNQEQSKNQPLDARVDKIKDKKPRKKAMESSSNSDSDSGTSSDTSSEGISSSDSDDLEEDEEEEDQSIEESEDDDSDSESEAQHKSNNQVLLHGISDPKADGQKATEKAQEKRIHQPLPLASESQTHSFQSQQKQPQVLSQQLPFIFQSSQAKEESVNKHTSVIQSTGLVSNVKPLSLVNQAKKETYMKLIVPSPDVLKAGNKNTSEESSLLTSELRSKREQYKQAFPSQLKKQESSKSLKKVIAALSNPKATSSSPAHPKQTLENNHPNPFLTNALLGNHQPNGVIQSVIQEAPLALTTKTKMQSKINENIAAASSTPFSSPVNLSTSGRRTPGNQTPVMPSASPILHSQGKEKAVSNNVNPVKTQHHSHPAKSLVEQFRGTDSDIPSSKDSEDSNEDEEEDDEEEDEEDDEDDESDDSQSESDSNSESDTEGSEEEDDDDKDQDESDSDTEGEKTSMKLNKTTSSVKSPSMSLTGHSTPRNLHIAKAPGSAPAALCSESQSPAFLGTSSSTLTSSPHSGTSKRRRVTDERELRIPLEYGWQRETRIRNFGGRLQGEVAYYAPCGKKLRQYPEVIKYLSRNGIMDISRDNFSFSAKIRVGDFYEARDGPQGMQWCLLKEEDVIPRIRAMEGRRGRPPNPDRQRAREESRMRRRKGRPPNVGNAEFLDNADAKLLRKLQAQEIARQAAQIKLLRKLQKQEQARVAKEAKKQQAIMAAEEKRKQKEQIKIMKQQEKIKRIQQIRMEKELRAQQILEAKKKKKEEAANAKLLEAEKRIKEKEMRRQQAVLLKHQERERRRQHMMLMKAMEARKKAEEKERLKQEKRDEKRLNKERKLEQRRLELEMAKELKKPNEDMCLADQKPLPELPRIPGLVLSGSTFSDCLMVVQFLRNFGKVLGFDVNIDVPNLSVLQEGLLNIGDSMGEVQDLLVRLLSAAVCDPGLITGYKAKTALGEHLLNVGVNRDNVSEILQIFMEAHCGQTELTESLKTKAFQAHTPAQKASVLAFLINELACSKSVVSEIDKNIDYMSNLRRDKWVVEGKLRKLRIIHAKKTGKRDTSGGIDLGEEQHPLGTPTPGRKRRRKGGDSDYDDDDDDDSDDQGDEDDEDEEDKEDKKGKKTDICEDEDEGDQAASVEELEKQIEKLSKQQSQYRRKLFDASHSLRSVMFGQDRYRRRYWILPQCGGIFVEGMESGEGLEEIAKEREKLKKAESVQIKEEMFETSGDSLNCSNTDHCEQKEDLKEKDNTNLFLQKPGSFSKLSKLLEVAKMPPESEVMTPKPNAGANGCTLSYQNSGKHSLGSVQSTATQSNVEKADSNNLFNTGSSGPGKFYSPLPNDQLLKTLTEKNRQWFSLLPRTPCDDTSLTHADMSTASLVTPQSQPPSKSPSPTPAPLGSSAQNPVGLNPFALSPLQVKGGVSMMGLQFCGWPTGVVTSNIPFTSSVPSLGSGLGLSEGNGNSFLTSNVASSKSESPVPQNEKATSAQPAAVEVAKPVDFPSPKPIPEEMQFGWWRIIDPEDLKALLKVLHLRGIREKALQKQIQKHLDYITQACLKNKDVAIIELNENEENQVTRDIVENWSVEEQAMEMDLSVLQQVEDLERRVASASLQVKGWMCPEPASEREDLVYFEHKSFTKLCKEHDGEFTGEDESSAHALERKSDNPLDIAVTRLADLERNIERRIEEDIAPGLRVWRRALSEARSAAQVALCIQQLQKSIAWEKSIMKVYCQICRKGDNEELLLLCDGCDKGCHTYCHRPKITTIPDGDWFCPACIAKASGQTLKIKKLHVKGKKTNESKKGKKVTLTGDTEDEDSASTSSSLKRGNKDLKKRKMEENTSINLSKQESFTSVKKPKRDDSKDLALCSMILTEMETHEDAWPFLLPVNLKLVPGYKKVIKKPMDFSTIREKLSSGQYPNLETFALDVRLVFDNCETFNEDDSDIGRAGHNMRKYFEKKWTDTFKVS
Outline: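 AlphaScreen luminescence quantifies BAZ2B engagement of H3K14Ac peptide; the protein and biotinylated peptide are both at 50 nM final, buffer PBS pH 7.4 with 0.01% Tween-20, all steps at room temperature.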
Also: nearly all actives have a fitted effect of over 60% in size.
Potency is read from the fitted curve at half-maximal effect; tags tell the direction and shape of the fitted curve.

| SMILES | Potency |
| --- | --- |
| CC(O)CNCCCOc1cccc(Oc2ccccc2)c1 (configuration not stated) | active: 28.2 µM |
| Cc1occc1C(=O)N/N=C/c1cccc2ccccc12 | inactive |
| Fc1ccc(-n2c(Cn3nnc4ccccc43)n[nH]c2=S)cc1 | inconclusive: 89.1 µM [inhibitor, single point] |
| Cc1cccc(Cl)c1NC(=S)NN | inactive |
| CCn1c(SCC(=O)Nc2cc(OC)ccc2OC)nc2c(c1=O)SCC2 | active: 79.4 µM |
| Cc1[nH]c(=O)[nH]c1C(=O)CCCCC(=O)O | active: 0.891 µM |
| COc1ccc(C2=NN(C(=O)c3ccccc3)C(c3ccc(OC)c(OC)c3)C2)c(OC(C)=O)c1 (configuration not stated) | inactive |
| O=C(O)CCCCCN1C(=O)C(O)=C(C(=O)/C=C/c2ccccc2)C1c1ccc2c(c1)OCO2 (configuration not stated) | inconclusive: 89.1 µM [inhibitor, single point] |
| O=C(c1ccccc1)c1ccc(O)cc1O | inactive |
| O=C(CNS(=O)(=O)c1ccccc1)N/N=C/c1ccncc1 | inactive |
| Cc1cc(C(=O)Cn2nnc3ccccc3c2=O)c(C)n1-c1ccccc1F | inconclusive: 89.1 µM [inhibitor, single point] |
| CC(C)(C)c1ccc(OC(=O)N2CCOCC2)cc1 | inactive |
| CCOC(=O)c1cc(NC(=O)/C=C\C(=O)O)ccc1Cl | inconclusive: 70.8 µM [inhibitor, partial curve, poor fit] |
| NS(=O)(=O)c1ccc(N=Nc2c[nH]c(=O)c(O)c2)cc1 | active: 7.94 µM |
| CCNC(=S)N/N=C(\C)c1ccc2ccccc2c1 | active: 35.5 µM |
| O=P(O)(O)c1ccccc1OCCOCCOc1ccccc1P(=O)(O)O | inactive |
| CCCCn1c(N)c(N(CC(C)C)C(=O)CCNC(=O)c2ccccc2Cl)c(=O)[nH]c1=O | inconclusive: 100 µM [inhibitor, single point] |
| CCOc1ccc(CNc2ccc3c(c2)ncn3C(C)(C)C)cc1 | inconclusive: 44.7 µM [inhibitor, partial curve] |
| Cc1cccc(OCCCN2CCCCCC2)c1 | active: 79.4 µM |
| CCn1c(SCc2cccc(Br)c2)nnc1-c1nonc1NC(C)=O | inactive |
| Cc1ccc(S(=O)(=O)NNC(=O)c2ccc(O)cc2)cc1 | inactive |
| O=C(Nc1cccnc1)c1ccc(F)c(S(=O)(=O)N2CCOCC2)c1 | inconclusive: 3.55 µM [inhibitor, single point] |
| CCOC(=O)c1c(NC(=O)CSc2nnc(CNC(=O)c3ccco3)n2C)sc2c1CCC2 | inconclusive: 50.1 µM [inhibitor, partial curve] |
| COc1cc2c(cc1OC)CN(C(=O)c1cc(S(=O)(=O)N3CCCCC3)ccc1Cl)CC2 | inconclusive: 70.8 µM [inhibitor, single point] |
| COCCCn1c(=N)c(C(=O)NCc2ccco2)cc2c(=O)n3cccc(C)c3nc21 | inactive |
| COc1ccc(S(=O)(=O)NC2CC2)cc1C(=O)N1CCOCC1 | inactive |

| SMILES | Potency |
| --- | --- |
| CCc1cnc2c(c1SCC(=O)Nc1ccc(OC)c(OC)c1)c(=O)n(C)c(=O)n2C | inactive |
| Clc1ccc(N=c2ssnc2Cl)cc1 | active: 39.8 µM |
| C=CCn1c(-c2sc3nc(C)cc(C)c3c2N)n[nH]c1=S | inactive |
| CC(=O)Nc1ccc(S(=O)(=O)NCC2CCC(C(=O)N3CCCCCC3)CC2)cc1 (configuration not stated) | inconclusive: 100 µM [inhibitor, single point] |
| COc1cc(C2CC(=O)N3CN(Cc4ccccc4)CSC3=C2C#N)ccc1OCc1ccccc1 (configuration not stated) | inconclusive: 44.7 µM [inhibitor, partial curve] |
| CC(C)(C)c1ccccc1NC(=O)CN1C(=O)NC(Cc2ccccc2)C1=O (configuration not stated) | active: 70.8 µM |
| O=C(NCc1ccc(Cl)cc1)c1ccc2oc(=O)n(Cc3ccccc3)c2c1 | inactive |
| Cc1nnc(-c2cccc(Br)c2)c2cn(-c3cccc(Br)c3)nc12 | active: 56.2 µM |
| Cc1ccc(S(=O)(=O)N2CCOCC2)cc1NC(=O)CNc1ccccc1N1CCCC1=O | inactive |
| CCOC(=O)c1cc(S(=O)(=O)N2CCN(c3cccc(OC)c3)CC2)[nH]n1 | inconclusive: 89.1 µM [inhibitor, single point] |
| CCOC(=O)c1c(NC(=O)C2C3C=CC(C3)C2(C)C(=O)O)sc2c1CCCC2 (configuration not stated) | active: 56.2 µM |
| Cc1cc(C)c2[nH]c(C(=O)Nc3ccc4c(c3)OCO4)cc2c1 | active: 50.1 µM |
| Cc1ccc(S(=O)(=O)N(C)CC(=O)Oc2ccc(-c3nnco3)cc2)cc1 | inactive |
| Cn1c(=O)n(C)c2cc(NC(=O)C(F)(F)F)ccc21 | inconclusive: 79.4 µM [inhibitor, single point] |
| O=C(Nc1ccc(N2CCCCCC2)cc1)c1cccc(S(=O)(=O)N2CCOCC2)c1 | active: 31.6 µM |
| Cc1ccc(S(=O)(=O)N2CCCCC2CCNC(=O)C(=O)NCCc2ccco2)cc1 (configuration not stated) | inconclusive: 89.1 µM [inhibitor, single point] |
| O=C(N/N=C\c1ccc([N+](=O)[O-])o1)C1COc2ccccc2O1 (configuration not stated) | inactive |
| CN1CCN(C(=O)C(=O)Nc2c3c(nn2-c2cccc(Cl)c2)CSC3)CC1 | inactive |
| CCCCOC(=O)Cn1nnc2sc(-c3ccccc3)cc2c1=O | inactive |
| COc1ccc(S(=O)(=O)/N=C2/NC(=O)/C(=C\c3ccco3)S2)cc1 | inconclusive: 89.1 µM [inhibitor, single point] |
| COc1cccc(CNC(=O)c2ccc3c(c2)N(C)CCS3)c1OC | inconclusive: 50.1 µM [inhibitor, partial curve, poor fit] |
| CCOC(=O)c1ccc(CC(=O)c2ccc(O)c(O)c2O)o1 | active: 31.6 µM |
| CC(C)Oc1ccc(C(=O)Nc2nnc(C3=COCCO3)o2)cc1 | inconclusive: 89.1 µM [inhibitor, single point] |
| Cc1ccc(NC(=O)Cn2nnc(C(=O)NCCc3ccccc3)c2N)c(C)c1 | inconclusive: 79.4 µM [inhibitor, single point] |
| CC(C)(C)S(=O)(=O)c1c(C(=O)O)cccc1C(=O)O | inconclusive: 100 µM [inhibitor, single point] |
| COc1cc(O)c(C(CCN2CCCC2)c2ccc(N(C)C)cc2)c(OC)c1 (configuration not stated) | active: 35.5 µM |

| SMILES | Potency |
| --- | --- |
| NC(=O)COC(=O)CCSc1ccc(Cl)cc1 | inactive |
| Fc1ccccc1Nc1nc2c(s1)CCc1ccccc1-2 | inconclusive: 79.4 µM [inhibitor, partial curve] |
| CSc1ccc(/C=C(\C(=O)O)c2ccc(S(=O)(=O)N3CCCCC3)s2)cc1 | inconclusive: 50.1 µM [inhibitor, partial curve] |
| COc1ccccc1CN(Cc1ccco1)c1cnc(S(C)(=O)=O)nc1C(=O)Nc1ccccc1Cl | inconclusive: 50.1 µM [inhibitor, partial curve, poor fit] |
| COc1cccc(NC(=O)Nc2nc(-c3ccc(OC)c(OC)c3)cs2)c1 | inconclusive: 44.7 µM [inhibitor, partial curve] |
| CC(C)C[C@H](N)c1nnc(S(=O)(=O)Cc2cccc(F)c2)o1 | inconclusive: 89.1 µM [inhibitor, single point] |
| CN1CCN(/N=C/c2nc(-c3ccccc3Cl)n3ccccc23)CC1 | inactive |
| O=C(CCCn1c(=O)[nH]c2ccsc2c1=O)N1CCN(c2cccc(C(F)(F)F)c2)CC1 | inactive |
| CC(=O)N1c2c(cc(Br)cc2S(=O)(=O)Nc2ccc(OC(F)(F)F)cc2)CC1C (configuration not stated) | inactive |
| O=C(CCn1c(=O)[nH]c2ccccc2c1=O)N1CCN(c2cccc(C(F)(F)F)c2)CC1 | inactive |
| CCOC(=O)C(C(=O)OCC)c1cc(Br)c2noc3c2c1C(=O)c1ccccc1-3 | active: 7.94 µM |
| Cc1cc(C=NCCO)c(C)n1-c1cc(Cl)ccc1Cl | inconclusive: 79.4 µM [inhibitor, single point] |
| Cn1c(=O)c(C(=O)COC(=O)c2cc(-c3ccccc3)nc3ccccc23)c(N)n(Cc2ccccc2)c1=O | inconclusive: 89.1 µM [inhibitor, single point] |
| Cn1cc([N+](=O)[O-])c(C(=O)Nc2ccc(-c3nc4ccccc4[nH]3)cc2)n1 | inconclusive: 79.4 µM [inhibitor, single point] |
| CCCC1C(=O)N2C(N(C)C)=Nc3ccc(C)cc3N2C1=O (configuration not stated) | inconclusive: 89.1 µM [inhibitor, single point] |
| COc1ccccc1NC(c1cccnc1)c1ccc2cccnc2c1O (configuration not stated) | active: 14.1 µM |
| O=C(N/N=C/c1ccco1)c1ccncc1 | inconclusive: 100 µM [inhibitor, single point] |
| CN1C2=CC=CC=CC2=[N+](C)C12C=CC(=[N+]([O-])[O-])C=C2[N+](=O)[O-] (configuration not stated) | active: 35.5 µM |
| Cc1nc2c3ccccc3n(Cc3ccccc3F)c2s1 | inconclusive: 79.4 µM [inhibitor, single point] |
| COC(=O)c1c(NC(=O)CC2SC(N)=NC2=O)sc2c1CCC(C(C)(C)C)C2 (configuration not stated) | inconclusive: 50.1 µM [inhibitor, partial curve] |
| CCOc1ccccc1CSc1nc2ccccc2[nH]1 | inactive |
| Cc1ccc(NC(=O)CSc2nccn2Cc2ccc3c(c2)OCO3)c(C)c1 | inconclusive: 31.6 µM [inhibitor, partial curve] |
| Cc1ccc(C(=O)/C=C/c2cn(CC(O)CN3CCCCCC3)c3ccccc23)cc1 (configuration not stated) | inconclusive: 31.6 µM [inhibitor, partial curve] |
| O=C(O)CC(Sc1n[nH]c(=S)s1)C(=O)O (configuration not stated) | active: 79.4 µM |
| Cc1cc(C)c(NC(=O)CN(C)S(=O)(=O)c2ccc3c(c2)c(=O)n(C)c(=O)n3C)c(C)c1 | inactive |
